Measurements published in PubChem BioAssay AID886 (National Center for Advancing Translational Sciences (NCATS), 2007).
Hit rate of the full screen: of about 73,000 compounds, about 2,500 (3.4%) were called active. Inconclusive means that the source gave no clear call. Such entries were picked first, then a sample of the others. Calls follow the shape of the dose curve; as a rule, active = well fitted inhibition curve with a large enough effect; inconclusive = small, poorly fitted or top-dose-only effect; inactive = no such curve, though single readings can be large or run the other way. A potency beside an inconclusive call is a rough fit, not a confirmed value. A structure can be active in one record and inactive in another.

Biological target: 3-hydroxyacyl-CoA dehydrogenase type-2 (Homo sapiens) (UniProt Q99714)
UniProt Q99714, sequence (Q99714 whole entry, looked up): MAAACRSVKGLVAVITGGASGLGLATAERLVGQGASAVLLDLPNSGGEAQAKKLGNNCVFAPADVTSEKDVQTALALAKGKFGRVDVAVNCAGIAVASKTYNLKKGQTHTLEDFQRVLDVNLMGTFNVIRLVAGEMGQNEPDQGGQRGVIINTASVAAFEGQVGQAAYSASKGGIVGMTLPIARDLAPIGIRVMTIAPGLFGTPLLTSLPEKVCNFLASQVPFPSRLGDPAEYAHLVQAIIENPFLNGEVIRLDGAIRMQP
UniProt Q99714, sequence (Q99714 whole entry, looked up): as above
Assay: qHTS Assay for Inhibitors of HADH2 (Hydroxyacyl-Coenzyme A Dehydrogenase, Type II); also: nearly all actives have a fitted effect of over 60% in size
Settings: recombinant HADH2, NADH fluorescence, beta-hydroxybutyryl-CoA; activity change, negative = inhibition: at 57.1 µM (top of the series)
Method in brief: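 NADH fluorescence (ex 360/em 450 nm) read every 30 s for 4 min; activity taken as last-minus-first time point difference. Enzyme 20 nM, NAD+ 1 mM, beta-hydroxybutyryl-CoA 90 uM, pH 9.0 Tris buffer.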
% is scaled to controls: 0 for no effect and ±100 for the full control effect; potency is read from the fitted curve at half-maximal effect; tags tell the direction and shape of the fitted curve.

Row | Compound | Potency | activity change, negative = inhibition
1 | CCOC(=O)C1CCN(C(=O)Nc2ccc3nc(C)c(C)nc3c2)CC1 | active: 31.6 µM | –
2 | Oc1ccc(Cl)cc1/C=N/c1nccs1 | inconclusive: 2.51 µM [inhibitor, partial curve] | –
3 | COc1ccc(CCNC(=O)CSc2nnnn2-c2ccccc2)cc1 | – | inactive: 0.238%
4 | CCOC(=O)Cc1csc(NC(=O)c2c(-c3ccccc3)noc2C)n1 | – | inactive: 9.31% [at 11.4 µM]
5 | COc1ccc2c(c1)c1ncn(Cc3ccco3)c(=O)c1n2C | active: 31.6 µM | –
6 | COc1ccc2[nH]cc(CCNc3ccnc(-c4ccc(N(C)C)cc4)n3)c2c1 | – | inactive: -25%
7 | N[C@H]1CCN(O)C1=O | – | inactive: -1.98%
8 | COc1cccc(C2=NOC(C(=O)Nc3cccc(C(C)=O)c3)C2)c1OC (configuration not stated) | inconclusive: 31.6 µM [inhibitor, single point] | –
9 | CCC(=O)Nc1ccc2c(c1)C(=O)N(C1CCCCC1)C2=O | inconclusive: 31.6 µM [inhibitor, single point] | –
10 | CCN(CC)C(=O)c1cc2cc(Br)ccc2oc1=O | – | inactive: 0.706%
11 | COc1cc(Cl)ccc1NC(=O)COc1ccccc1C(=O)N1CCN(c2ccc(O)cc2)CC1 | inconclusive: 1.58 µM [inhibitor, full curve] | –
12 | Cc1cccc(C(=O)NCCN2CCN(c3ccccc3)CC2)c1 | inconclusive: 39.8 µM [inhibitor, single point] | –
13 | O=C(c1cc(-c2ccncc2)nc2ccccc12)N1CCN(c2ccc(N3CCOCC3)nn2)CC1 | – | inactive: 18.9%
14 | NC1=N[C@H](c2ccc(Cl)cc2)N(c2ccc(S(N)(=O)=O)cc2)C(N)=N1 | – | inactive: 12.9% [at 11.4 µM]
15 | Clc1ss/c(=N\c2ccccn2)c1Cl | inconclusive: 12.6 µM [inhibitor, partial curve] | –
16 | COCCN(CCOC)Cc1cc(=O)oc2cc3c(cc12)CCC3 | – | inactive: -1.67%
17 | CSCC[C@H](NC(=O)OC(C)(C)C)c1nnc(SCc2ccccc2)o1 | inconclusive: 3.98 µM [inhibitor, single point] | –
18 | Cc1noc(C)c1-c1nccc(NCc2cccnc2)n1 | inconclusive: 39.8 µM [inhibitor, single point] | –
19 | Cc1nc2cnc(N3CCOCC3)nc2n(C2CC2)c1=O | – | inactive: -10.5%

Row | Compound | Potency | activity change, negative = inhibition
20 | CCNc1nc(N2CCOCC2)nc(N(c2ccccc2)c2ccccc2)n1 | – | inactive: 16.1%
21 | CN(C)Cc1ccccc1-c1nc(NCc2ccccc2)c2ccccc2n1 | – | inactive: 8.27%
22 | COc1ccc([C@@H]2CNC(=O)C2)cc1OC1CCCC1 | inactive | –
23 | CC(C)COC[C@H](CN(Cc1ccccc1)c1ccccc1)N1CCCC1 | active: 3.16 µM | –
24 | COc1nc(-c2ccccc2)ccc1-c1noc(-c2ccco2)n1 | active: 31.6 µM | –
25 | CC1CCN(c2nc(-c3ccco3)c3c(c2C#N)CC(C)(C)OC3)CC1 | inconclusive: 12.6 µM [inhibitor, partial curve] | –
26 | CC(C)=NO[C@@H](C)CN1CCCc2nc(C)c(C)cc21 | inconclusive: 2 µM [inhibitor, partial curve] | –
27 | CCCC(=O)OCCNC(=O)c1cc2ccccc2oc1=O | inconclusive: 5.01 µM [inhibitor, single point] | –
28 | NCCC[C@H](N)CC(=O)N[C@H]1CNC(=O)[C@@H]([C@@H]2C[C@H](O)N=C(N)N2)NC(=O)/C(=C/NC(N)=O)NC(=O)[C@@H](CO)NC(=O)[C@@H](CO)NC1=O | – | inactive: -0.969% [at 25.6 µM]
29 | COc1ccc(-c2cc([C@H](O)[C@@H]3CCCCN3)c3ccccc3n2)cc1 | inconclusive: 7.94 µM [inhibitor, single point] | –
30 | O=c1[nH]c2cc3c(cc2cc1C(c1nnnn1C1CCCC1)N1CCSCC1)OCCO3 (configuration not stated) | inconclusive: 31.6 µM [inhibitor, single point] | –
31 | Nc1c(S(=O)(=O)O)cc(Nc2ccc(Nc3nc(Cl)nc(Nc4ccc(S(=O)(=O)O)cc4)n3)c(S(=O)(=O)O)c2)c2c1C(=O)c1ccccc1C2=O | active: 1 µM | –
32 | CCOc1ccc(-c2nnc(N(CC)C(=O)C3CCC3)s2)cc1 | inconclusive: 39.8 µM [inhibitor, single point] | –
33 | Cc1ccc(S(=O)(=O)/C=C\C#N)cc1 | – | inactive: -5.97%
34 | Cc1sc2ncnc(N3CCCCC3C)c2c1C (configuration not stated) | – | inactive: -3.17%
35 | CCN(CC)S(=O)(=O)c1ccc2c3c(cccc13)C(=O)N2 | inconclusive: 39.8 µM [inhibitor, single point] | –
36 | COc1ccc(-c2ccc(CCC(=O)O)n2C(C)C)cc1 | – | inactive: -22.5%
37 | COc1ccccc1-c1cncnc1N1CCN(C)CC1 | inconclusive: 25.1 µM [inhibitor, single point] | –
